# The other results are listed elsewhere or left out. Single values are uncertain, as repeats are few or missing.
# Test system: A375
# Experiment: cell count relative to DMSO control; melanoma cells; higher = more viable cells
# Settings: library dose: standard library concentration; 72 h
# 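Note: cells treated in 1,536-well plates, then fixed and DAPI-stained, with nuclei counted from automated high-throughput microscope images.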
row,Structure (SMILES),cell count
1,"CCN(CC)CCNC(=O)c1c(C)[nH]c(/C=C2\C(=O)Nc3ccc(F)cc32)c1C [sunitinib] + O=C(O)c1ccc(-c2c[nH]c3ncc(-c4ccccc4)cc23)cc1C1CCCC1 [GSK650394] (first compound 2 µM, partner dose 0.8 µM)",89.9%
2,"COc1cc([C@@H]2c3cc4c(cc3[C@@H](O[C@@H]3O[C@@H]5CO[C@@H](C)O[C@H]5[C@H](O)[C@H]3O)[C@H]3COC(=O)[C@H]23)OCO4)cc(OC)c1O [etoposide] + Cc1cc(N2CCOCC2)cc2[nH]c(-c3c(NC[C@@H](O)c4cccc(Cl)c4)cc[nH]c3=O)nc12 [BMS536924] (first compound 0.1 µM, partner dose 1 µM)",81.1%
3,"COc1cc([C@@H]2c3cc4c(cc3[C@@H](O[C@@H]3O[C@@H]5CO[C@@H](C)O[C@H]5[C@H](O)[C@H]3O)[C@H]3COC(=O)[C@H]23)OCO4)cc(OC)c1O [etoposide] + CN(NC(=O)CC(=O)NN(C)C(=S)c1ccccc1)C(=S)c1ccccc1 [STA4783] (first compound 0.1 µM, partner dose 0.03 µM)",85.9%
4,"CCN(CC)CCNC(=O)c1c(C)[nH]c(/C=C2\C(=O)Nc3ccc(F)cc32)c1C [sunitinib] + CCCS(=O)(=O)Nc1ccc(F)c(C(=O)c2c[nH]c3ncc(Cl)cc23)c1F [PLX4720] (first compound 2 µM, partner dose 0.4 µM)",74.6%
5,"Cn1cnc2c(F)c(Nc3ccc(Br)cc3Cl)c(C(=O)NOCCO)cc21 [selumetinib] + OCc1c[nH]c2ccccc12 [Indole-3-carbinol] (first compound 0.075 µM, partner dose 4 µM)",102%
6,"CCN(CC)CCNC(=O)c1c(C)[nH]c(/C=C2\C(=O)Nc3ccc(F)cc32)c1C [sunitinib] + CC(=O)c1c(C)c2cnc(Nc3ccc(N4CCNCC4)cn3)nc2n(C2CCCC2)c1=O [palbociclib] (first compound 2 µM, partner dose 0.2 µM)",78.3%
7,"COc1cc([C@@H]2c3cc4c(cc3[C@@H](O[C@@H]3O[C@@H]5CO[C@@H](C)O[C@H]5[C@H](O)[C@H]3O)[C@H]3COC(=O)[C@H]23)OCO4)cc(OC)c1O [etoposide] + Cn1c(Nc2ccc(C(F)(F)F)cc2)nc2cc(Oc3ccnc(-c4ncc(C(F)(F)F)[nH]4)c3)ccc21 [CHIR265] (first compound 0.1 µM, partner dose 0.4 µM)",84.8%
8,"C[C@]1(O)C[C@@H](c2nc(-c3ccc4ccc(-c5ccccc5)nc4c3)c3c(N)nccn32)C1 + CS(=O)(=O)CCNCc1ccc(-c2ccc3ncnc(Nc4ccc(OCc5cccc(F)c5)c(Cl)c4)c3c2)o1 [lapatinib] (first compound 2 µM, partner dose 4 µM)",113%
9,"C[C@]1(O)C[C@@H](c2nc(-c3ccc4ccc(-c5ccccc5)nc4c3)c3c(N)nccn32)C1 + Cc1ccc(NC(=O)c2cccc(N(C)C)c2)cc1NC(=O)c1ccc(O)cc1 [ZM336372] (first compound 2 µM, partner dose 10 µM)",84.8%
10,"CCN(CC)CCNC(=O)c1c(C)[nH]c(/C=C2\C(=O)Nc3ccc(F)cc32)c1C [sunitinib] + C=C(c1ccc(C(=O)O)cc1)c1cc2c(cc1C)C(C)(C)CCC2(C)C [Bexarotene] (first compound 2 µM, partner dose 10 µM)",122%
11,"COc1cc([C@@H]2c3cc4c(cc3[C@@H](O[C@@H]3O[C@@H]5CO[C@@H](C)O[C@H]5[C@H](O)[C@H]3O)[C@H]3COC(=O)[C@H]23)OCO4)cc(OC)c1O [etoposide] + NC(=O)c1ccc(N(C(N)=O)c2c(F)cccc2F)nc1-c1ccc(F)cc1F [VX702] (first compound 0.1 µM, partner dose 2 µM)",87.6%
12,"Cn1cnc2c(F)c(Nc3ccc(Br)cc3Cl)c(C(=O)NOCCO)cc21 [selumetinib] + C#Cc1cccc(Nc2ncnc3cc(OCCOC)c(OCCOC)cc23)c1 [erlotinib] (first compound 0.075 µM, partner dose 4 µM)",95.4%
